Source: PMC4336329 (PLoS ONE, 2015)
About 14,000 (4.5%) of roughly 310,000 compounds showed an effect of 50% or more. Effects have a minus sign here. The list shows a part of the results.

target: human ether-à-go-go-related gene (hERG) potassium channel (human, UniProt Q12809); assay: primary screen, population patch clamp on CHO cells stably expressing hERG
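Also: peak tail current of the secondary pulse compared with the same well before compound.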

Chain of human ether-à-go-go-related gene (hERG) potassium channel (Q12809 whole entry, looked up): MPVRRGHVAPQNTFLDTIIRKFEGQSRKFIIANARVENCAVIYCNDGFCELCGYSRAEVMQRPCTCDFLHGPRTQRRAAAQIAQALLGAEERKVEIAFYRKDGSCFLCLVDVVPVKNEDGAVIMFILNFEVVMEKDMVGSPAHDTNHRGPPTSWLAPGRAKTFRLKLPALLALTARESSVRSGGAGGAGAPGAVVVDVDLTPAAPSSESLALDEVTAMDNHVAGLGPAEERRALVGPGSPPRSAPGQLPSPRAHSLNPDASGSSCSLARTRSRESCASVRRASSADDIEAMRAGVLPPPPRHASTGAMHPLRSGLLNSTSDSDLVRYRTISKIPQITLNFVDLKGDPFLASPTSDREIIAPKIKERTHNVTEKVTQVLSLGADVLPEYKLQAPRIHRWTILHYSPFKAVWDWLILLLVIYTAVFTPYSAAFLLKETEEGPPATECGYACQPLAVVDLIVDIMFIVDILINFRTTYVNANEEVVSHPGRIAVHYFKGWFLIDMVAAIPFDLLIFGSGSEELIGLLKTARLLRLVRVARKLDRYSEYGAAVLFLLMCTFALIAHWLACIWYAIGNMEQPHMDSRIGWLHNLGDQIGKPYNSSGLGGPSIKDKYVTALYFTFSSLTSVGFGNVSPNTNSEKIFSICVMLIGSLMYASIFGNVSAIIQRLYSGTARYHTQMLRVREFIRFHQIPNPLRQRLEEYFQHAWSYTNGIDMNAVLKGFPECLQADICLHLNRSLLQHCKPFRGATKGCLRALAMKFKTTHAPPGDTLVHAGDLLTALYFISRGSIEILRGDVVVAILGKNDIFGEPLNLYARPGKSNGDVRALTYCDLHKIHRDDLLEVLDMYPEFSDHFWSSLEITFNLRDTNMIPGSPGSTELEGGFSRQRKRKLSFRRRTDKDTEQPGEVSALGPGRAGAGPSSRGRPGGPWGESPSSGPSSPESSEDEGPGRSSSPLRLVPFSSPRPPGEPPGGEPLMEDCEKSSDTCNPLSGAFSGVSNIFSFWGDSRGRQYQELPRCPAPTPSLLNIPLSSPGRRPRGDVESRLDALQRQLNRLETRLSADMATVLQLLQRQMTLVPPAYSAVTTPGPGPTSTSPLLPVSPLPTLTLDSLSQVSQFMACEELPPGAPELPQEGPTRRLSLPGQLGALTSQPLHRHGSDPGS

| Structure (SMILES) | hERG current change (%, negative = inhibition) at 10uM |
| --- | --- |
| NNC(=O)c1ccc(Oc2cc(Cl)cc(Cl)c2)o1 | 1.1% |
| Cc1cccc(C(=O)NCC(=O)OCC(=O)N(C)CC(=O)Nc2ccccc2Cl)c1 | -40.5% |
| CCOC(=O)c1c(C)nn(Cc2cccc(Cl)c2)c1N | -18.1% |
| O=C(Nc1ccc2c(c1)OCCO2)c1cccc(S(=O)(=O)N2CCOCC2)c1 | -16.4% |
| CCOc1ccc(OCCC(=O)OC(C)C(=O)Nc2ccc(C(C)=O)cc2)cc1 (centres unmarked) | 8.72% |
| CC1(C)CCC(=O)N(c2ccc(OC(F)(F)F)cc2)C1=O | 18.6% |
| CC1=C(C(=O)Nc2cccnc2)C(c2cccnc2)n2nc(-c3cccs3)nc2N1 (centres unmarked) | 9.78% |
| CCCc1nc(SCC(=O)Nc2nnc(SCC)s2)c2c(=O)n(C)c(=O)n(C)c2n1 | 3.68% |
| COc1ccccc1NC(=O)C12CC3CC(C1)CC(c1ccc(C)cc1)(C3)C2 | 12.6% |
| Cc1ccc(NC(=O)CSc2nnc(-c3cnccn3)n2C)cc1C | -5.78% |
| CCN(CC)CCCNC(=O)c1cn(CC(C)C)c(=O)c2c1c1ccccc1n2C | -17.2% |
| O=[N+]([O-])c1ccc(N2N=C(c3ccccc3)CC2c2ccccc2O)cc1 (centres unmarked) | 12.7% |
| COc1ccccc1-c1oc2ccccc2c1C#CCCCCO | 22.6% |
| CS(=O)(=O)N(CC(=O)N1CCC(C(N)=O)CC1)C1CCCCC1 | 4.86% |
| CC(NC(=O)CCc1ccc(S(=O)(=O)NC2CCCCC2)cc1)c1ccccc1 (centres unmarked) | 1.12% |
| Cc1ccc(CS(=O)Cc2ccc(C(=O)NCC(C)c3ccccc3)o2)cc1 (centres unmarked) | -25.8% |
| CC(=O)Nc1nc(C)c(C(C)C)s1 | 7.77% |
| C/C(=N/NC(=O)CNC(=O)c1cccnc1)c1ccc(Cl)c(Cl)c1 | -1.98% |
| O=C(O)C1=C[C@@H](C2CCCCC2)C[C@@H](OCc2ccc(CO)cc2)O1 | 3.31% |
| CCOC(=O)Cc1csc(NC(=O)CN2CCOCC2)n1 | 14.1% |
| CC1CCCCN1C(=S)NC(=O)c1ccccc1 (centres unmarked) | 6.66% |
| O=C(NC1CCS(=O)(=O)C1)/C(=C/c1ccc(Cl)cc1)NC(=O)c1ccccc1 (centres unmarked) | -55% |

| Structure (SMILES) | hERG current change (%, negative = inhibition) at 10uM |
| --- | --- |
| O=C(CNC(=O)c1ccc(-c2ccccc2)cc1)OCc1ccc(Cl)cc1 | 8.06% |
| O=C(COc1ccc2c(-c3ccccc3)cc(=O)oc2c1)NCc1ccccn1 | -10.7% |
| O=Cc1ccc2noc(-c3ccc(F)cc3)c2c1 | -21.3% |
| Cc1ncccc1C(=O)N1CCCC(C(=O)c2ccc3c4c(cccc24)CC3)C1 (centres unmarked) | -13.2% |
| O=C(NCC(c1ccco1)N1CCN(c2ccc(F)cc2)CC1)C(=O)NC1CCCC1 (centres unmarked) | 20% |
| Cc1ccc(-c2nnc3n2CCCCC3)cc1 | 1.57% |
| O=[N+]([O-])c1ccc(S(=O)(=O)N/N=C/c2ccsc2)cc1 | 10.6% |
| Oc1ccc2c(c1)oc1cc(O)ccc12 | 21.2% |
| CCCCNC(=S)N/N=C/c1ccccc1F | 2.81% |
| CN(Cc1ccccc1)C(=O)CCSc1nc(-c2ccc3c(c2)OCO3)cc(C(F)(F)F)n1 | 6.4% |
| COc1cccc2c1OCC(CN1CCN(C3CCCCC3)C(CCO)C1)=C2 (centres unmarked) | -17% |
| COC(=O)CC[C@@H](C(=O)O)N1C(=O)c2ccccc2C1=O | 6.23% |
| O=C(O)Cn1cccc1C(=O)c1ccccc1 | -21.6% |
| CCOC(=O)C(C)Oc1ccc(OCc2ccccc2)cc1 (centres unmarked) | 20.1% |
| CCN(CC)S(=O)(=O)c1ccc(N2CCOCC2)c(NC(=O)CNCCc2ccccc2)c1.O=C(O)C(=O)O | -63.8% |
| CCc1noc(C)c1C(=O)Nc1nc2c(C)cccc2s1 | -4.92% |
| COc1cccc(-c2ccc(-c3noc(-c4ccccc4F)n3)c(OC)n2)c1 | -5.94% |
| NNC(=O)c1cnn(-c2ccccc2)c1C(F)(F)F | 22.7% |
| CC12CN(C(=O)c3ccc([N+](=O)[O-])cc3)CC(C)(CN(C(=O)c3ccc([N+](=O)[O-])cc3)C1)C2=O | -3.28% |
| CCn1cc(C(=O)O)c(=O)c2cc(F)c(N3CCN(C(=S)NC(=O)c4cccc(C)c4)CC3)cc21 | -9.09% |
| C=CCSc1cc(C)nc2c(-c3ccccc3)cnn12 | 12.4% |
| CC(=O)Nc1ccc(NC(=O)Cn2c(-c3ccc(F)cc3)cnc2SCC(=O)Nc2c(C)cccc2C)cc1 | 8.24% |
